Test results as given in PubChem BioAssay AID488969 (Vanderbilt High Throughput Screening Facility, 2010).
Over roughly 110,000 compounds, “z-score” has its median near -0.1; the highest 2% begin near 2. Some of the results follow.

biological target: Metabotropic glutamate receptor 8 (Rattus norvegicus) (UniProt P70579); experiment: rat mGluR8 modulators via GIRK flux, primary screen, cell-based, thallium flux, HTS (AID 488969); settings: HEK293 rat mGluR8, GIRK (G protein-gated inwardly rectifying potassium channel) thallium flux, FluoZin2; at 10 µM; stronger effect = higher value; submaximal glutamate (EC20) added with thallium
Chain of UniProt P70579 (P70579 whole entry, looked up): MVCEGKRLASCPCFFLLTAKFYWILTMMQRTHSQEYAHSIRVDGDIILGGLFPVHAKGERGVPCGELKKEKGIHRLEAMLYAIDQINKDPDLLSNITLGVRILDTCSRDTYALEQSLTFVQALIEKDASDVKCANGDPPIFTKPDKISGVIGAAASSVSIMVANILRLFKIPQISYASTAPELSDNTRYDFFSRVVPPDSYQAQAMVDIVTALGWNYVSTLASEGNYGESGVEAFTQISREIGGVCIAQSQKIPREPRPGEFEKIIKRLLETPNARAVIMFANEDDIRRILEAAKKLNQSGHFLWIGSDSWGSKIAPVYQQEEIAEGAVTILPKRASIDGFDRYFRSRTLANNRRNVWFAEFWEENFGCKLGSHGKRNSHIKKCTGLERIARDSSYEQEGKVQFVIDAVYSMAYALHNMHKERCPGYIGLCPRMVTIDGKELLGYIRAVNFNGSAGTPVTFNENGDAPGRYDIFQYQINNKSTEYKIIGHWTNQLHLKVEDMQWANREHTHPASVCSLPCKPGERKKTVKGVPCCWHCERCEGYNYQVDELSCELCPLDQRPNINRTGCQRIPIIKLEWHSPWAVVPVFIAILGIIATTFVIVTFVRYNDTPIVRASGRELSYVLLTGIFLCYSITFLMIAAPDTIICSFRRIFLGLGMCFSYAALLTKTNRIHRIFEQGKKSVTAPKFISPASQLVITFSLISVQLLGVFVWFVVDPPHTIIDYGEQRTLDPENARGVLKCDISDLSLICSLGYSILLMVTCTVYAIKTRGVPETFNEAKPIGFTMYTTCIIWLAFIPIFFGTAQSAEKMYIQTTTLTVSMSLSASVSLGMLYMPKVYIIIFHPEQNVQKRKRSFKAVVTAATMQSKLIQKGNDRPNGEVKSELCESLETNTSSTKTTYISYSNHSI

Compound	z-score
O=C(Cc1ccccc1)NCCc1cccc(Cl)c1	0.142
CCn1c(=O)c(C(=O)NNS(=O)(=O)c2ccc(C)cc2)c(O)c2ccccc21	-0.0351
O=C(Nc1ncc(Cc2cc(Cl)ccc2Cl)s1)c1ccc([N+](=O)[O-])cc1	-0.0183
CC(C)c1ccc(S(=O)(=O)N2CCN(C(=O)c3cccc(F)c3)CC2)cc1	0.325
CC(C)c1ccc(C(=O)NCCCc2ccccc2)cc1	-0.477
Cc1ccc2c(C(=O)CN3CCN(C4CCCCC4)CC3)c(C)[nH]c2c1	-0.0163
Oc1c(Cl)cc(Cl)cc1C=Nc1ccc2c(c1)OCCO2	-1.21
CCOC(=O)Cn1c(S(=O)(=O)Cc2ccccc2)nc2ccccc21	0.335
CN(C)c1ccc(N/C=C/C(=O)c2ccccc2)cc1	0.836
COc1cc2c(cc1OC)C(C(=O)N1CCOCC1)C(c1cccs1)N(C)C2=O (stereo not given)	-0.0306
CC(C)C(NC(=O)c1cccs1)c1nnc(SCC(=O)Nc2nccs2)n1C (stereo not given)	-2.33
C/C(=N\NC(=O)C1CCCN(S(=O)(=O)c2ccccc2)C1)c1ccccn1 (stereo not given)	-0.113
CN=C(Nc1ccc(C(=O)OC)cc1)SC1CC(=O)N(c2ccccc2F)C1=O (stereo not given)	-0.129
CC(=O)Nc1cc(-c2nn(CC(=O)N3CCCCC3)c(=O)c3ccccc23)ccc1N1CCOCC1	-0.158
Cc1ccc(S(=O)(=O)N2CCCC(NC(=O)N3CCN(c4ccccc4)CC3)C2)cc1 (stereo not given)	0.0203
COC(=O)c1ccccc1NC(=O)c1ccc(Cn2cc(Cl)cn2)o1	0.872
COc1ccc(C)cc1NC(=O)C1CCCN(S(=O)(=O)c2cnc[nH]2)C1 (stereo not given)	0.651
CCc1ccc(-c2nc(C(N)=O)c3[nH]c(=O)n(-c4ccccc4OC)c3n2)cc1	-0.23
Cc1cc(C)c(S(=O)(=O)/N=C2/C=C(Sc3ncn[nH]3)C(=O)c3ccccc32)cc1C	-0.0789
CCC(C)C(NC(N)=O)C(=O)Nc1ccc(C)c(Cl)c1 (stereo not given)	-0.12
Cc1ccc(-c2nnc3n2CCCCC3)cc1	0.0634
Cc1ccc(C(=O)ON=C2CCN(S(=O)(=O)c3ccccc3)CC2)cc1	0.00667

Compound	z-score
O=C(CCS(=O)(=O)Cc1ccccc1)Nc1nc2c(s1)CCCC2	-0.123
CCOC(=O)c1nn(-c2ccc(Cl)cc2)c2nc(CC)c(C#N)c(=O)n12	-0.735
CC(C)CC(=O)N1CCN(c2ccc([N+](=O)[O-])c(NCc3ccccc3)c2)CC1	-0.62
NCCCN1CCOCC1	-0.0276
COc1cccc(C(=O)Nc2ccc(NC(C)=O)cn2)c1	0.157
COc1cccc(COc2ccccc2C2Nc3ccc(Br)cc3C(=O)N2NC(=O)c2ccncc2)c1 (stereo not given)	-0.52
C/C(=N\NS(=O)(=O)c1ccc(C)cc1)c1ccc(C)s1	-0.125
CCC(c1nnnn1C(C)(C)CC)N(CCCN1CCOCC1)Cc1cc2cccc(C)c2[nH]c1=O (stereo not given)	0.192
CCCC(CCC)C(=O)NNc1cc(=O)c2c(=O)n(C)c(=O)n(C)c2[nH]1	-0.704
Cn1cc([N+](=O)[O-])c(C(=O)N/N=C/c2ccccc2)n1	-0.138
CCOC(Cn1c(-c2ccc(OC)cc2)nc2ccccc21)OCC	-0.127
O=S(=O)(c1ccc(Cl)s1)N1CCc2ccccc2C1	-0.1
CCOc1cc2[nH]c(=O)n(CCC(=O)NCCc3ccc(OC)c(OC)c3)c(=O)c2cc1OCC	-1.28
CCN(CC)S(=O)(=O)c1cccc(S(=O)(=O)N2CCCCC2)c1	-0.121
COc1ccc(CCNC(=S)Nc2ccc(C)cc2C)cc1	-0.0431
O=C(NCC(c1cccnc1)N1CCN(c2ccc(F)cc2)CC1)c1ccccc1 (stereo not given)	0.917
Cc1nnc(SCc2ccc(Cl)cc2Cl)[nH]c1=O	0.492
Cn1cc(/C=C/c2nc3ccccc3c(=O)n2-c2cccc([N+](=O)[O-])c2)c2ccccc21	-0.0701
COC(=O)C1C2C=CC3(CN(CC4CCCO4)C(=O)C13)O2 (stereo not given)	-0.0852
CCCCC(=O)Nc1ccc(C(=O)NNC(=S)NC(=O)c2cccs2)cc1	0.439
Cc1ccc(-c2cc3nc(-c4ccccc4)cc(N)n3n2)cc1	-0.0169
c1ccc(CNc2ccc3c(c2)ncn3C2CCCCC2)nc1	-0.0967

Compound	z-score
COc1ccc(S(=O)(=O)n2nc(OC(=O)C3CCCCC3)cc2N)cc1	0.933
O=C(CSc1nc2ccc([N+](=O)[O-])cc2[nH]1)NC1CCCCCC1	0.93
Cc1cc(NC(=O)/C=C/c2ccc(F)cc2)n(-c2nc3ccccc3[nH]2)n1	-0.0458
CC(NC(=O)c1ccc(N2CCCC2=O)cc1)c1ccccc1 (stereo not given)	-0.16
O=C(CN(C(=O)c1ccc(Cl)cc1)C1CCCCC1)Nc1ccc(Cl)c([N+](=O)[O-])c1	0.377
O=C(O)C1CCCCC1C(=O)Nc1cc(Cl)ccc1Cl (stereo not given)	2.08
CC(C)n1nnnc1-c1cccc(Cl)c1	-0.12
CC(=O)Nc1c(C(=O)N2CCOCC2)cnn1-c1ccc(C)c(C)c1	-0.0497
Oc1c(C=NCc2ccncc2)sc2ccccc12	2.11
CCN(CCO)Cc1csc2c(Br)cccc12	0.216
COCCn1c(=O)[nH]c2cc(C(=O)NCCN3CCN(c4ccccc4)CC3)ccc2c1=O	-0.468
CC(NC(=O)C(=O)NN=C1CCCCCC1)c1ccccc1 (stereo not given)	-0.167
COc1ccc(/C=C/C(=O)NC(C)CCc2ccccc2)cc1 (stereo not given)	0.461
CCN(C(=O)CSc1nnc(-c2ccncc2)n1C)C1CCS(=O)(=O)C1 (stereo not given)	-0.521
Cc1cc(C)c(NC(=O)C2C3/C=C\CCCCC32)c(C)c1 (stereo not given)	-0.102
CN(C)c1ccnc2sc(C(=O)c3ccccc3)c(N)c12	-0.37
O=C(N/N=C\c1ccc(CN(Cc2ccc(Cl)cc2)S(=O)(=O)c2ccccc2)o1)C(=O)Nc1ccc(F)cc1	-0.0826
O=C(CO/N=C/c1ccccc1OC(F)F)NC1CCCCC1	-0.0902
COc1ccc(OC)c(-c2nnc(NC(=O)C(C)Sc3nncn3C)s2)c1 (stereo not given)	-0.462
Cc1cccc(N2CC(C)Cn3c2nc2c3c(=O)n(CC(=O)OCc3ccccc3)c(=O)n2C)c1 (stereo not given)	-0.321
O=C(c1ccco1)N1CCN(c2nc(-c3ccc(F)cc3)cs2)CC1	-1.08
NC(=O)c1cc(-c2ccccc2)nc(N2CCCCCC2)n1	0.438

Compound	z-score
O=C(NCCc1ccccc1)C1CCCN1S(=O)(=O)c1ccc(F)cc1 (stereo not given)	-0.0903
COc1cc(C2C(C(C)=O)=C(O)C(=O)N2CCN2CCOCC2)ccc1O (stereo not given)	-0.351
Cn1cnnc1SCc1ccccc1	-0.0881
OC(COCC(F)(F)C(F)(F)C(F)(F)C(F)F)Cn1c2ccccc2c2ccccc21 (stereo not given)	0.164
CCCn1nc2cc(C(=O)NCc3ccc(C)cc3)ccc2c1OC	-0.433
Cn1c(N=Nc2ccccc2)nc2ccccc21	-0.172
O=C(NCCc1ccccn1)c1cc(-c2cccc3ccccc23)nc2ccccc12	-0.201
Clc1ccc(C(c2nnnn2C2CCCC2)N2CCSCC2)cc1 (stereo not given)	-0.998
COc1ccc(-n2c(NCCN(C)C)nc3sc4c(c3c2=O)CCCCC4)cc1	0.108
NC(=O)c1cccc(S(=O)(=O)N2CCCCC2)c1	-0.24
CCSc1ccccc1C(=O)NCc1ccco1	-0.168
Cc1cccc(N2CCN(C(=O)C3CCCN(S(=O)(=O)c4cnc[nH]4)C3)CC2C)c1 (stereo not given)	-0.0441
FC(F)(F)c1cccc(N2CCN(CC3CC=CCC3)CC2)c1 (stereo not given)	0.0449
C=CCOc1ccc2nc(NC(=O)OC)[nH]c2c1	-0.0622
COc1ccc2[nH]c(=O)c(CNc3cccc(C)c3)cc2c1	-0.263
O=C(Nc1ccc(F)cc1)C1CC(=O)n2c(nc3ccccc32)N1 (stereo not given)	-0.119
Cn1c(-c2ccccc2)c(CCO)c2ccccc21	-0.194
O=C(c1ccccc1)N1CCN(c2ccccc2F)CC1	0.276
COc1nccnc1NS(=O)(=O)c1ccc(N=Cc2c(C)[nH]n(-c3ccccc3)c2=O)cc1	-0.188
COc1ccc(C(=O)N(c2ccc(OC)cc2)S(=O)(=O)c2cccs2)cc1	0.08
COc1cc(OC)cc(-c2ncc3ccccn23)c1	-0.226
N#Cc1c(N)n(CCNC(=O)c2ccc(Cl)cc2)c2nc3ccccc3nc12	-0.116

Compound	z-score
O=C(CCC(=O)OCC(=O)c1ccc(Cl)cc1Cl)Nc1cccc2cccnc12	0.0344
C=CCN(CC=C)C(=S)Nc1ccccc1	-0.0866
COC(=O)CSC1=C(C#N)C(c2ccc(Cl)cc2)C(C(=O)OC)C(=O)N1 (stereo not given)	-0.203
CCOC(=O)c1cnc2cc(-c3ccc(Cl)cc3)nn2c1N	-0.0675
Cn1c(CNS(=O)(=O)c2ccc(Br)cc2)n[nH]c1=S	-0.0999
CCOC(=O)Cn1c(N)c(C(=O)OC)sc1=S	0.268
CCOC(=O)c1c(N2C(=O)C3C4C=CC(C4)C3C2=O)sc2c1CCC(C)C2 (stereo not given)	-0.299
CC(=O)Oc1ccc(C(=O)Nc2cc(NC(=O)c3ccc(OC(C)=O)cc3)cc(C(=O)NC(C)(C)C)c2)cc1	0.0825
CCn1c(SCC(=O)NNC(=O)c2ccc(C)cc2)nnc1-c1ccncc1	-0.224
Cc1[nH]c(=O)[nH]c(=O)c1NS(=O)(=O)c1ccccc1	-0.278
CCS(=O)(=O)Nc1ccc2c(c1)N(C(C)=O)c1ccccc1CC2	-0.432
Cc1ccc2sc(-c3ccc(NC(=O)CCN4C(=O)c5ccccc5C4=O)cc3)nc2c1	-0.0748
CCOC(=O)c1ccc(N2CSC3=C(C#N)C(c4cccs4)CC(=O)N3C2)cc1 (stereo not given)	-0.177
Cc1ccc(NC(=O)COC(=O)Cn2c(C)csc2=O)cc1	-1.08
COP(C)(=O)c1c(C)nn(-c2ccccc2)c1C (stereo not given)	0.0101
O=C(NCC1CCCO1)C1CCN(S(=O)(=O)c2cccc3cccnc23)CC1 (stereo not given)	-0.104
Cc1ccc(C(c2nnnn2C2CCCCC2)N2CCN3CCCC3C2)cc1 (stereo not given)	-0.813
Oc1ccc(CN2CCCc3ccccc32)c2cccnc12	-0.948
CN(CCO)Cc1csc2ccc(Br)cc12	-0.103
O=C(COc1ccccc1)N/N=C/c1ccc([N+](=O)[O-])o1	0.0711
O=C(CNC1CCCCCC1)Nc1ccc(S(=O)(=O)NC2CC2)cc1	-0.309
O=C(NCc1ccco1)NCC(F)(F)F	0.155
